In the supplement of paper PMC8728848:
This is one part of the list.

Legend:
[1] = target: Neu5Gc(a2-8)Neu5Gc(a2-6)Gal(b1-4)GlcNAc; experiment: glycan array binding signal (z-score within array); higher = stronger binding; conditions: glycan notation: IUPAC condensed, linker removed
Outline: (§1)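 Arrays were curated from the Consortium for Functional Glycomics database, 3228 in total, and kept only where the protein sequence was available. Binding is expressed as a within-array Z-score. This score was averaged across arrays of the same protein sequence at different concentrations or buffers and across linkers, and negative values can be read as non-binding.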

[2] = target: Neu5Gc(b2-6)Gal(b1-4)GlcNAc; experiment: as above; conditions: glycan notation: IUPAC condensed, linker removed
Outline: as §1

B1: EULS2 M2 (Oryza sativa) (protein)
chain: MVYCRANPNYAMTARNGAVVLAPANPKDEYQHWIKDMRWSTSIKDEEGYPAFALVNKATGQAIKHSLGQSHPVRLVPYNPEVMDESVLWTESRDVGNGFRCIRMVNNIYLNFDAFHGDKYHGGVRDGTDIVLWKLCEGDSQRWKIQPYYILEQKLISEEDLNSAVDHHHHHH
- glycan array binding signal (z-score) [1]: -0.339
- glycan array binding signal (z-score) [2]: 0.485
